Among all 48,000 compounds or so, about 120 (0.25%) were called active. About 4% were inconclusive and are not listed. The call rests on the fitted dose curve; in most records, active means well fitted activation curve with a large enough effect; inconclusive means small, poorly fitted or top-dose-only effect, or another doubt; inactive means no such curve, though single readings can be large or run the other way. The list shows a part of the results.
Assay: Primary qHTS for Identification of Small Molecule Activators of Huntingtin-Antisense Promoter Activity; further: nearly all actives have a fitted effect of over 55% in size
Settings: HEK293 HTT-AS promoter firefly luciferase reporter, 24 h; series mostly up to 57.5 µM; activity change, positive = activation: at the top concentration
Procedure, shortened: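 Quantitative HTS used concentration series of up to 57.5 uM final on HEK293 luciferase reporter cells, 24 h at 37 degrees C. Readout was Dual-Glo firefly luminescence.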

Activity change, positive = activation, inactive:
Cc1ccc(NC(=O)Cn2cc(C(=O)C3CC3)c3ccccc32)c(C)c1 -10.2%
CC(C)CCNC(=O)c1ccc2c(c1)NC(=O)C(CS(=O)(=O)Cc1ccc(F)cc1)N2 (stereo not drawn) -5.86%
CC1=C(C(=O)N2CCN(c3cc(C)ccc3C)CC2)C2(CCC(C)CC2)OC1=O (stereo not drawn) -21.7%
COc1ccc(C(C(=O)NCc2ccccc2)N(C(=O)Cn2nnc3ccccc32)c2cccc(OC)c2)cc1 (stereo not drawn) -7.33%
COc1ccc(C(=O)Nc2nc3nc(C)c(Cc4ccccc4)c(=O)n3[nH]2)cc1OC -6.78%
Cc1ccc(CNC(=O)COCc2cc(-c3cccs3)on2)cc1 5.24%
CC1=C(C(=O)Nc2cccnc2)C(c2cccc(Br)c2)n2nc(SCc3ccccc3)nc2N1 (stereo not drawn) -13.2%
CCOc1ccc(CNC(=O)C2CCN(S(=O)(=O)N3CCC(C)CC3)CC2)cc1OC -19.4%
COc1cc(NC(=O)C2CCN(c3cnc4ccccc4n3)CC2)cc(OC)c1OC -16.4%
CCCc1cc(=O)n2[nH]c(NC(=O)c3ccc(C(C)(C)C)cc3)nc2n1 1.01%
Cc1cccc(CNS(=O)(=O)c2ccc(-c3cnc(C4CC4)o3)cc2)c1 -31.5%
CC(=O)c1cccc(NC(=O)CN2C=NS(=O)(=O)c3ccc(C)cc32)c1 -6.87%
CC1=C(C(=O)Nc2ccccc2C)C(c2ccncc2)n2nc(SCc3ccccc3Cl)nc2N1 (stereo not drawn) -17.1%
Cc1cccc(-c2noc(-c3ccccc3NC(=O)C3CC(=O)N(c4ccccc4C)C3)n2)c1 (stereo not drawn) 3.53%
CCn1c(=O)c2cc(C(=O)Nc3cc(OC)c(OC)c(OC)c3)sc2c2ccccc21 -11.7%
Cn1ccc2cc(S(=O)(=O)N3CCCC(C(=O)NCc4ccccc4)C3)ccc21 (stereo not drawn) -14.4%
Cc1nc(N2CCOCC2)c2c(C(=O)NCc3ccc(Cl)cc3)c(C)oc2n1 -4.09%
Cc1ccc(OCCSc2nc3ccc(NC(=O)c4cccs4)cc3s2)cc1 -22.1%
CN(C)S(=O)(=O)N(CC(=O)Nc1ccc(C(F)(F)F)cc1)c1ccccc1 -18.5%
Cc1ccc(S(=O)(=O)N2CC=C(c3c(C)n(CC(=O)N4CCCC4)c4ccccc34)CC2)cc1C -34%
COCCOCC(OC)OC -0.711%
COc1cc(OC)cc(C(=O)NCCc2csc3nc(-c4ccccc4F)nn23)c1 -11.8%
Cc1sc(-n2cccc2)c(C(C)NC(=O)Nc2cccc(C(F)(F)F)c2)c1C (stereo not drawn) -46.2%
COc1cccc(CNC(=O)c2cc(-c3ccc(Cl)cc3)n[nH]2)c1 8.06%
O=C(CCC(=O)N1CCSc2ccccc21)Nc1ccc(Cl)cc1 -19.4%
CCC(CC)c1nn2c(=O)cc(COc3ccc(NC(=O)c4cccc(C)c4)cc3)nc2s1 -8.94%
COc1cccc2c1C(=O)c1c(O)c3c(c(O)c1C2=O)C[C@@](O)(C(C)=O)C[C@H]3O[C@H]1C[C@H](N)[C@H](O)[C@H](C)O1 -30.6%
CCOc1cccc(C(=O)N(Cc2ccc(C)o2)C2CCS(=O)(=O)C2)c1 (stereo not drawn) -13.7%
COc1ccc(CNC(=O)c2ccc3c(c2)N(Cc2cc(C)ccc2C)C(=O)CS3)cc1 -10.4%
COc1ccccc1CNS(=O)(=O)c1cc(Br)cc2c1N(C(=O)C1CC1)CC2 -17%
COc1ccc(CNc2nc(-c3ccc(Cl)cc3)nn2S(=O)(=O)c2ccc(C)cc2)cc1 1.87%
Cc1cc(C)c2sc(NC(=O)c3ccc(S(=O)(=O)N4CCCC4)cc3)nc2c1 -28.5%
CCOc1ccc(NC(=O)C2(c3cccs3)CCOCC2)cc1 -11.4%
CCOC(=O)c1cccc(NC(=O)CCc2nc3cccnc3n2-c2ccccc2)c1 -18.3%
CNC(=O)Oc1ccc2c(c1)[C@]1(C)CCN(C)[C@@H]1N2C 1.3%
COc1ccccc1C(=O)Nc1nc2nc(C)cc(=O)n2[nH]1 -3.91%
CCOC(=O)c1c(C)oc2ccc(N(C(=O)c3ccncc3)S(=O)(=O)c3ccc(CC)cc3)cc12 -42.3%
O=C(CN1C(=O)COc2ccc(S(=O)(=O)NC3CCCC3)cc21)Nc1ccc(Cl)cc1F -29.6%
Cc1cc2c(F)c(Oc3ncnn4cc(OC[C@@H](C)O)c(C)c34)ccc2[nH]1 -30.3%
O=C(O)CSCC(=O)NC1CCSC1=O (stereo not drawn)
CCOC(=O)c1c(C)[nH]c(CCC(=O)Nc2cc(Cl)ccc2OC)c1C -24.6%
COC(=O)c1cc(NC(=O)c2cc3c(-c4ccccc4F)nn(C)c3s2)cc(C(=O)OC)c1 -54.6%
COc1ccc(OC)c(S(=O)(=O)NCC(c2ccc(N(C)C)cc2)N2CCOCC2)c1 (stereo not drawn) -7.35%
O=C(NCC(c1ccco1)S(=O)(=O)c1cccs1)c1ccccc1 (stereo not drawn) 16%
COc1ccc(N2CCN(S(=O)(=O)c3ccc(CC(C)C)cc3)CC2)cc1 -26.6%
COC(=O)c1cc2oc3ccccc3c2n1Cc1ccc(C)cc1 -1.96%
CCOC(=O)c1cc2c(=O)n3ccccc3nc2n(Cc2ccco2)c1=NC(=O)c1ccccc1Br -17.5%
CCOc1ccc(NC(=O)Cn2c(=O)n(CCCC(=O)NCCc3ccc(Cl)cc3)c(=O)c3ccccc32)cc1 -16%
Cc1ccc(Cn2c(SCC(=O)NCc3ccccc3)nc3ccsc3c2=O)cc1 -14.6%
Cc1cccc(N2CCN(S(=O)(=O)c3ccc(-c4cnc(C5CC5)o4)cc3)CC2)c1C 4.35%
Cc1ccccc1-c1noc(-c2ccc(NCC3CCCO3)c([N+](=O)[O-])c2)n1 (stereo not drawn) 13.3%
CCOC(=O)c1cccc(NC(=O)C(C)n2nc(C)c3c(C)n(-c4ccccc4)nc3c2=O)c1 (stereo not drawn) -17.5%
Cc1oc(-c2ccccc2F)nc1CS(=O)(=O)CC(=O)N1CCN(c2ccccc2)CC1 -25.1%
Cc1ccc([N+](=O)[O-])cc1NC(=O)CN(c1ccccc1)S(=O)(=O)N(C)C -19.7%
COc1ccc(-c2[nH]c(-c3ccc(O)cc3)nc2-c2ccccc2)cc1 -27.7%
O=c1cc(COc2ccc(Cl)cc2Cl)nc2scc(-c3ccccc3)n12 -9.43%
COc1ccccc1OCC(=O)N(Cc1ccco1)Cc1ccccc1F -21.5%
CCOc1ccc(CC(=O)NC2CC(=O)N(c3cccc(F)c3)C2)cc1 (stereo not drawn) -7.94%
COc1ccccc1-c1nn2c(=O)cc(CN3CCN(C(=O)Nc4ccc(C)cc4Cl)CC3)nc2s1 8.07%
CCOc1ccc(-n2c(=O)c3c(C)c(C)sc3n(CC(=O)C(C)(C)C)c2=O)cc1 9.41%
CCS(=O)(=O)N1CCc2cc(C(=O)Nc3ccc(Br)cc3F)ccc21 -17.4%
Cc1ccc(-n2c(=O)c3c(c4cc(C)ccc4n3C)n(CC(=O)Nc3ccc(F)cc3)c2=O)cc1 -19.9%
CC(=O)c1ccc(N2CCN(C(=O)c3cn(C)c(=O)c4c3c3ccccc3n4C)CC2)cc1 6.54%
COc1ccc(CNC(=O)COCc2cc(-c3ccc4c(c3)OCO4)on2)cc1 3.87%
COc1cc(C(=O)NCC(c2ccco2)S(=O)(=O)c2cccs2)cc(OC)c1OC (stereo not drawn) -3.92%
CCc1cccc(C)c1NC(=O)c1ccc2c(c1)CCN2S(=O)(=O)c1ccc(Cl)cc1 -24.5%
COc1ccc(N(Cc2cccs2)C(=O)c2ccco2)cc1 -34.4%
CCCCC(=O)Nc1nnc(S(=O)(=O)N(C)Cc2ccc(Cl)cc2)s1 -2.52%
Cc1cc(C)cc(NC(=O)CCc2c(C)nc3nc(CNC(=O)c4cccc(F)c4)nn3c2C)c1 -5.92%
COCCCNc1nc2c(c(=O)n(Cc3ccc(F)cc3)c(=O)n2C)n1C -5.03%
Cc1nc2n(c(=O)c1CCN1CCC(C(=O)c3ccc(F)cc3)CC1)CCS2 -19.5%
CCOc1cc(C(=O)NCCc2sc(-c3ccc(F)cc3)nc2C)cc(OCC)c1OCC -22.3%
CNC(=O)CCCN1C(=O)c2cccnc2Sc2ccccc21 -9.37%
Cc1nc2ccc(S(=O)(=O)N(CC(=O)Nc3ccc(F)cc3F)Cc3ccccc3)cc2s1 -19%
CCOc1ccc(NC(=O)c2ccc3[nH]c(C)c(C)c3c2)cc1 -1.68%
O=C(Cn1c(SCc2ccccc2F)nc2ccncc21)Nc1ccccc1C(F)(F)F 9.95%
O=C(Cn1c(=O)c2cccn2c2cccnc21)NCc1cccc(F)c1 -8.93%
Cc1ccc(S(=O)(=O)Nc2cccc(-c3cn4cccc(C)c4n3)c2)c(C)c1 -8.9%
CCc1ccc(NC(=O)CSC2=Nc3ccccc3C3=NC(CCC(=O)NCc4ccccc4)C(=O)N23)cc1 (stereo not drawn) -5.81%
Cc1ccccc1NC(=O)Cn1cc(C(=O)c2cccs2)c2ccccc21 -27.9%
CCCCN(C)C(=O)c1cn(C)c2ccc(S(=O)(=O)N3CCC(C)CC3)cc2c1=O 15% [at 11.5 µM, percent change from vehicle, -100% = no light]
CN(C)C(=O)Oc1cccc([N+](C)(C)C)c1 1.37%
O=C(Cn1ccc2cc(S(=O)(=O)N3CCCCC3)ccc21)NCCc1ccccc1Cl -32.2%
COc1ccccc1NC(=O)Cn1c(=O)n(Cc2ccccc2)c(=O)c2c1c1cc(C)ccc1n2C -5.91%
CCCCC(=O)OC1=C(C(=O)c2ccccc2)N(CCC)S(=O)(=O)c2ccccc21 -36%
CC(NC(=O)CSc1n[nH]c(-c2ccccc2Cl)n1)c1nc2ccccc2[nH]1 (stereo not drawn) -4.76%
CC(=O)c1cccc(NC(=O)c2nc(-c3ccccc3)n(-c3ccccc3)n2)c1 -15.8%
O=C1CCCc2cc(S(=O)(=O)N3CCCC(C(=O)NCc4ccccc4)C3)ccc2N1 (stereo not drawn) -22.6%
COc1cc2c(cc1OC)n(Cc1cccc(C(F)(F)F)c1)c(=O)n1nc(-c3ccccc3)nc21 -22.2%
COc1cccc(NC(=O)CCNS(=O)(=O)c2ccc3c(c2)oc(=O)n3C)c1 -7.52%
CCOC(=O)[C@H](CCc1ccccc1)N[C@@H](C)C(=O)N1Cc2cc(OC)c(OC)cc2C[C@H]1C(=O)O -1.56%
CCOc1ccc(NS(=O)(=O)c2cc3c(cc2Cl)NC(=O)CO3)cc1 -14.5%
Cc1cc(C)c(NC(=O)CCS(=O)(=O)c2cc3c(cc2Cl)NC(=O)CO3)c(C)c1 -17.6%

Source: PubChem BioAssay AID1508624 (National Center for Advancing Translational Sciences (NCATS), 2021)
